The text below walks through data of US20250101135A1 (Hoffmann-La Roche, published 2025).

In assay [1] the target is T1, human CD19 on B cell lymphoma and leukemia cell lines (human, UniProt P15391 20-556).
T1 construct: also called SU-DHL-8; Nalm6
T1 sequence: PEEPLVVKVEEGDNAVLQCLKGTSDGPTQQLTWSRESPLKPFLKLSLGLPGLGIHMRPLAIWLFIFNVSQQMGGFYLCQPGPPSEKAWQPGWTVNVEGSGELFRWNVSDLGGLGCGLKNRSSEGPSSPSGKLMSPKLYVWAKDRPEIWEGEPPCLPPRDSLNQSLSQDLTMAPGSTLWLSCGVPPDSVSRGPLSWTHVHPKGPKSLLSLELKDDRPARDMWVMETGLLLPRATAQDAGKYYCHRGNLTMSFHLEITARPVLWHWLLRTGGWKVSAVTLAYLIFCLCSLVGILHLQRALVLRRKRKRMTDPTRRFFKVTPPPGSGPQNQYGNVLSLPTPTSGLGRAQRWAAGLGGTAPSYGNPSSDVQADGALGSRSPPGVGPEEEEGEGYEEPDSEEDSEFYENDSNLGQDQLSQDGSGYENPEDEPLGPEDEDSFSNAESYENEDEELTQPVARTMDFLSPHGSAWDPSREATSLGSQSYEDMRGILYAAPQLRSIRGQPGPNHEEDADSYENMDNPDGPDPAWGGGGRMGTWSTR
In words: flow cytometry on SU-DHL-8 cells. In general terms: Flow cytometry measures light scatter and fluorescence of single cells or particles in a stream.

Assay [2] addresses T1, human CD19 on B cell lymphoma and …. As to the kind of experiment: flow cytometry on OCI-Ly18 cells.
Assay [3] deals with T2, human 4-1BB (CD137) on cells (human, UniProt Q07011 24-255).
T2 construct: whole, on cells; also called 4-1BB+CD8+; 4-1BB+CD4+
As to the kind of experiment: flow cytometry on activated human PBMC, 4-1BB+ CD8+ T cells.

In assay [4] the target is T1, human CD19 on B cell lymphoma and …. In words: flow cytometry on Toledo cells.
Assay [5] addresses T2, human 4-1BB (CD137) on cells. In words: flow cytometry on activated human PBMC, 4-1BB+ CD4+ T cells.
Assay [6] deals with T1, human CD19 on B cell lymphoma and …. In words: flow cytometry on Nalm6 cells.
The target in assay [7] is T3, monomeric human 4-1BB avi His (human).
T3 construct: ectodomain of human 4-1BB with avi and hexahistidine tags; also called hu4-1BB avi His; hu4-1BB
As to the kind of experiment: SPR Biacore T200, construct captured via anti-human Fab, 4-1BB avi His analyte, mean of two runs. A general note: SPR reads the build-up and loss of mass on a sensor chip optically.

Assay [8] has as its target T4, recombinant cynomolgus 4-1BB avi His (cynomolgus, UniProt O95905).
T4 construct: also called cy 4-1BB; cy4-1BB
Described as above.

B1: monovalent CD19(8B8-018) targeted split trimeric 4-1BB ligand (71-248) Fc (kih) fusion containing CH-CL cross with charged residues (construct 3.4) (Fc fusion)
chain 1: REGPELSPDDPAGLLDLRQGMFAQLVAQNVLLIDGPLSWYSDPGLAGVSLTGGLSYKEDTKELVVAKAGVYYVFFQLELRRVVAGEGSGSVSLALHLQPLRSAAGAAALALTVDLPPASSEARNSAFGFQGRLLHLSAGQRLGVHLHTEARARHAWQLTQGATVLGLFRVTPEIPAGLGGGGSGGGGSREGPELSPDDPAGLLDLRQGMFAQLVAQNVLLIDGPLSWYSDPGLAGVSLTGGLSYKEDTKELVVAKAGVYYVFFQLELRRVVAGEGSGSVSLALHLQPLRSAAGAAALALTVDLPPASSEARNSAFGFQGRLLHLSAGQRLGVHLHTEARARHAWQLTQGATVLGLFRVTPEIPAGLGGGGSGGGGSRTVAAPSVFIFPPSDRKLKSGTASVVCLLNNFYPREAKVQWKVDNALQSGNSQESVTEQDSKDSTYSLSSTLTLSKADYEKHKVYACEVTHQGLSSPVTKSFNRGE[no letters for human IgG1 Fc with changes]
chain 2: REGPELSPDDPAGLLDLRQGMFAQLVAQNVLLIDGPLSWYSDPGLAGVSLTGGLSYKEDTKELVVAKAGVYYVFFQLELRRVVAGEGSGSVSLALHLQPLRSAAGAAALALTVDLPPASSEARNSAFGFQGRLLHLSAGQRLGVHLHTEARARHAWQLTQGATVLGLFRVTPEIPAGLGGGGSGGGGSASTKGPSVFPLAPSSKSTSGGTAALGCLVEDYFPEPVTVSWNSGALTSGVHTFPAVLQSSGLYSLSSVVTVPSSSLGTQTYICNVNHKPSNTKVDEKVEPKSC
heavy: QVQLVQSGAEVKKPGASVKVSCKASGYTFTDYIMHWVRQAPGQGLEWMGYINPYNDGSKYTEKFQGRVTMTSDTSISTAYMELSRLRSDDTAVYYCARGTYYYGSALFDYWGQGTTVTVSSASTKGPSVFPLAPSSKSTSGGTAALGCLVKDYFPEPVTVSWNSGALTSGVHTFPAVLQSSGLYSLSSVVTVPSSSLGTQTYICNVNHKPSNTKVDKKVEPKSCDKTHTCPPCPAPEAAGGPSVFLFPPKPKDTLMISRTPEVTCVVVDVSHEDPEVKFNWYVDGVEVHNAKTKPREEQYNSTYRVVSVLTVLHQDWLNGKEYKCKVSNKALGAPIEKTISKAKGQPREPQVCTLPPSRDELTKNQVSLSCAVKGFYPSDIAVEWESNGQPENNYKTTPPVLDSDGSFFLVSKLTVDKSRWQQGNVFSCSVMHEALHNHYTQKSLSLSPGK
light: DIVMTQTPLSLSVTPGQPASISCKSSQSLENPNGNTYLNWYLQKPGQSPQLLIYRVSKRFSGVPDRFSGSGSGTDFTLKISRVEAEDVGVYYCLQLTHVPYTFGQGTKLEIKRTVAAPSVFIFPPSDEQLKSGTASVVCLLNNFYPREAKVQWKVDNALQSGNSQESVTEQDSKDSTYSLSSTLTLSKADYEKHKVYACEVTHQGLSSPVTKSFNRGEC
Broadly, the EC50 is the concentration giving half of the maximal effect. Higher therefore signals lower potency in that assay. Broadly, the Kd is the equilibrium constant for the complex coming apart. By koff is commonly meant a measure of how fast the partners let go of each other. Broadly, the kon is a measure of how fast the partners come together. Consider B1, for which the EC50 in assay [1] turned out to be 0.31 nM; in assay [2], 0.26 nM; in assay [3], 0.15 nM; in assay [4], 0.29 nM; in assay [5] it was 2.04 nM; in assay [6], 0.39 nM. The Kd in assay [7] was determined as 340 nM; in assay [8] it was 110 nM. The results for the koff in assay [7] and in assay [8] were 0.025 s⁻¹ and 0.013 s⁻¹, respectively. Also, the kon in assay [7] is 72000 M⁻¹ s⁻¹; in assay [8], 120000 M⁻¹ s⁻¹.

B2: bivalent CD19(8B8-018) targeted split trimeric 4-1BB ligand (71-254) Fc (kih) fusion (construct 3.3) (Fc fusion)
heavy 1: QVQLVQSGAEVKKPGASVKVSCKASGYTFTDYIMHWVRQAPGQGLEWMGYINPYNDGSKYTEKFQGRVTMTSDTSISTAYMELSRLRSDDTAVYYCARGTYYYGSALFDYWGQGTTVTVSSASTKGPSVFPLAPSSKSTSGGTAALGCLVKDYFPEPVTVSWNSGALTSGVHTFPAVLQSSGLYSLSSVVTVPSSSLGTQTYICNVNHKPSNTKVDKKVEPKSCDKTHTCPPCPAPEAAGGPSVFLFPPKPKDTLMISRTPEVTCVVVDVSHEDPEVKFNWYVDGVEVHNAKTKPREEQYNSTYRVVSVLTVLHQDWLNGKEYKCKVSNKALGAPIEKTISKAKGQPREPQVCTLPPSRDELTKNQVSLSCAVKGFYPSDIAVEWESNGQPENNYKTTPPVLDSDGSFFLVSKLTVDKSRWQQGNVFSCSVMHEALHNHYTQKSLSLSPGGGGGSGGGGSREGPELSPDDPAGLLDLRQGMFAQLVAQNVLLIDGPLSWYSDPGLAGVSLTGGLSYKEDTKELVVAKAGVYYVFFQLELRRVVAGEGSGSVSLALHLQPLRSAAGAAALALTVDLPPASSEARNSAFGFQGRLLHLSAGQRLGVHLHTEARARHAWQLTQGATVLGLFRVTPEIPAGLPSPRSEGGGGSGGGGSREGPELSPDDPAGLLDLRQGMFAQLVAQNVLLIDGPLSWYSDPGLAGVSLTGGLSYKEDTKELVVAKAGVYYVFFQLELRRVVAGEGSGSVSLALHLQPLRSAAGAAALALTVDLPPASSEARNSAFGFQGRLLHLSAGQRLGVHLHTEARARHAWQLTQGATVLGLFRVTPEIPAGLPSPRSE
heavy 2: QVQLVQSGAEVKKPGASVKVSCKASGYTFTDYIMHWVRQAPGQGLEWMGYINPYNDGSKYTEKFQGRVTMTSDTSISTAYMELSRLRSDDTAVYYCARGTYYYGSALFDYWGQGTTVTVSSASTKGPSVFPLAPSSKSTSGGTAALGCLVKDYFPEPVTVSWNSGALTSGVHTFPAVLQSSGLYSLSSVVTVPSSSLGTQTYICNVNHKPSNTKVDKKV[no letters for human IgG1 Fc with changes]GGGGSGGGGSREGPELSPDDPAGLLDLRQGMFAQLVAQNVLLIDGPLSWYSDPGLAGVSLTGGLSYKEDTKELVVAKAGVYYVFFQLELRRVVAGEGSGSVSLALHLQPLRSAAGAAALALTVDLPPASSEARNSAFGFQGRLLHLSAGQRLGVHLHTEARARHAWQLTQGATVLGLFRVTPEIPAGLPSPRSE
light: DIVMTQTPLSLSVTPGQPASISCKSSQSLENPNGNTYLNWYLQKPGQSPQLLIYRVSKRFSGVPDRFSGSGSGTDFTLKISRVEAEDVGVYYCLQLTHVPYTFGQGTKLEIKRTVAAPSVFIFPPSDEQLKSGTASVVCLLNNFYPREAKVQWKVDNALQSGNSQESVTEQDSKDSTYSLSSTLTLSKADYEKHKVYACEVTHQGLSSPVTKSFNRGEC
B2: the EC50 in assay [1] stood at 0.15 nM; in assay [2] it was 0.09 nM; in assay [3], 0.01 nM; in assay [4], 0.1 nM; in assay [5], 0.29 nM; in assay [6] it was 0.14 nM.

B3: bivalent CD19(8B8-018) targeted split trimeric 4-1BB ligand (71-248) Fc (kih) fusion (construct 3.6) (Fc fusion)
heavy 1: QVQLVQSGAEVKKPGASVKVSCKASGYTFTDYIMHWVRQAPGQGLEWMGYINPYNDGSKYTEKFQGRVTMTSDTSISTAYMELSRLRSDDTAVYYCARGTYYYGSALFDYWGQGTTVTVSSASTKGPSVFPLAPSSKSTSGGTAALGCLVKDYFPEPVTVSWNSGALTSGVHTFPAVLQSSGLYSLSSVVTVPSSSLGTQTYICNVNHKPSNTKVDKKVEPKSCDKTHTCPPCPAPEAAGGPSVFLFPPKPKDTLMISRTPEVTCVVVDVSHEDPEVKFNWYVDGVEVHNAKTKPREEQYNSTYRVVSVLTVLHQDWLNGKEYKCKVSNKALGAPIEKTISKAKGQPREPQVCTLPPSRDELTKNQVSLSCAVKGFYPSDIAVEWESNGQPENNYKTTPPVLDSDGSFFLVSKLTVDKSRWQQGNVFSCSVMHEALHNHYTQKSLSLSPGGGGGSGGGGSREGPELSPDDPAGLLDLRQGMFAQLVAQNVLLIDGPLSWYSDPGLAGVSLTGGLSYKEDTKELVVAKAGVYYVFFQLELRRVVAGEGSGSVSLALHLQPLRSAAGAAALALTVDLPPASSEARNSAFGFQGRLLHLSAGQRLGVHLHTEARARHAWQLTQGATVLGLFRVTPEIPAGLGGGGSGGGGSREGPELSPDDPAGLLDLRQGMFAQLVAQNVLLIDGPLSWYSDPGLAGVSLTGGLSYKEDTKELVVAKAGVYYVFFQLELRRVVAGEGSGSVSLALHLQPLRSAAGAAALALTVDLPPASSEARNSAFGFQGRLLHLSAGQRLGVHLHTEARARHAWQLTQGATVLGLFRVTPEIPAGL
heavy 2: QVQLVQSGAEVKKPGASVKVSCKASGYTFTDYIMHWVRQAPGQGLEWMGYINPYNDGSKYTEKFQGRVTMTSDTSISTAYMELSRLRSDDTAVYYCARGTYYYGSALFDYWGQGTTVTVSSASTKGPSVFPLAPSSKSTSGGTAALGCLVKDYFPEPVTVSWNSGALTSGVHTFPAVLQSSGLYSLSSVVTVPSSSLGTQTYICNVNHKPSNTKVDKKV[no letters for human IgG1 Fc with changes]GGGGSGGGGSREGPELSPDDPAGLLDLRQGMFAQLVAQNVLLIDGPLSWYSDPGLAGVSLTGGLSYKEDTKELVVAKAGVYYVFFQLELRRVVAGEGSGSVSLALHLQPLRSAAGAAALALTVDLPPASSEARNSAFGFQGRLLHLSAGQRLGVHLHTEARARHAWQLTQGATVLGLFRVTPEIPAGL
light: DIVMTQTPLSLSVTPGQPASISCKSSQSLENPNGNTYLNWYLQKPGQSPQLLIYRVSKRFSGVPDRFSGSGSGTDFTLKISRVEAEDVGVYYCLQLTHVPYTFGQGTKLEIKRTVAAPSVFIFPPSDEQLKSGTASVVCLLNNFYPREAKVQWKVDNALQSGNSQESVTEQDSKDSTYSLSSTLTLSKADYEKHKVYACEVTHQGLSSPVTKSFNRGEC
B3: the EC50 in assay [1] amounted to 0.14 nM; in assay [2] it was 0.1 nM; in assay [3], 0.05 nM; in assay [4], 0.09 nM; in assay [5], 0.21 nM; in assay [6], 0.12 nM. Further, the Kd turned out to be 350 nM in assay [7] and 130 nM in assay [8]. The results for the koff in assay [7] and in assay [8] were 0.024 s⁻¹ and 0.014 s⁻¹, respectively. Also, the kon in assay [7] is 69000 M⁻¹ s⁻¹; in assay [8] it was 110000 M⁻¹ s⁻¹.
